In all, about 390,000 compounds went through this assay and about 910 (0.23%) were called active. Roughly 5% stayed inconclusive and do not appear here. Calls follow the shape of the dose curve; as a rule, active = well fitted inhibition curve with a large enough effect; inconclusive = small, poorly fitted or top-dose-only effect; inactive = no such curve, though single readings can be large or run the other way. Only a part is listed here, and it is no random draw.
% is scaled to controls: 0 for no effect and ±100 for the full control effect; potency is read from the fitted curve at half-maximal effect.

Sequence of UniProt O94782 (O94782 whole entry, looked up): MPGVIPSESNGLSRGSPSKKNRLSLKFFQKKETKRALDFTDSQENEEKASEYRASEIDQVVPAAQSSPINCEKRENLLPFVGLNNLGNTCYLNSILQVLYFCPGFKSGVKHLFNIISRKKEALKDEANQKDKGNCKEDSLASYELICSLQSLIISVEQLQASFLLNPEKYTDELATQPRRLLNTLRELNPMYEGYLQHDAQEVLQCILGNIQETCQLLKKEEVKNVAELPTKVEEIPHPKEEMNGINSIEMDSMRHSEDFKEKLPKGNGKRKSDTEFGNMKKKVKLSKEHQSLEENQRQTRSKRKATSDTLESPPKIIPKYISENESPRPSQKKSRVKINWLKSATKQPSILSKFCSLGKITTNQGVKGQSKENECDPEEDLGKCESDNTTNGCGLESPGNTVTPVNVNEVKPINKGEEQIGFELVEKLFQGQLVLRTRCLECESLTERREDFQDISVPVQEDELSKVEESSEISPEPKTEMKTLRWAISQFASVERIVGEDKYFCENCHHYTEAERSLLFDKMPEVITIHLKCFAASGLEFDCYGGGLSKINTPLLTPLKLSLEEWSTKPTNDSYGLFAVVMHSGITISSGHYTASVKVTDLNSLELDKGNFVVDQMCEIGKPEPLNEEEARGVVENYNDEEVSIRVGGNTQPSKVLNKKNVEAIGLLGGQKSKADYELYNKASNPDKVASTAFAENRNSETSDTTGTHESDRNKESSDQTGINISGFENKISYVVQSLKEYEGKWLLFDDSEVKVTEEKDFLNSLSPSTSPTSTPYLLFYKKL

In the assay the target is Ubiquitin carboxyl-terminal hydrolase 1 (Homo sapiens) (UniProt O94782). Nature of the assay: Inhibitors of USP1/UAF1: Primary Screen. Also: nearly all actives have a fitted effect of over 60% in size. To be noted: recombinant USP1/UAF1, Ub-Rhodamine cleavage fluorescence; activity change, negative = inhibition: at 57.1 µM (top of the series). Summed up:
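USP1/UAF1 complex at 1 nM was preincubated with compound for 15 min at room temperature, then Ub-Rho substrate (150nM final) was added. Fluorescence (480/540 nm) was read kinetically, 6 reads every 60 seconds.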
For the compound `C=C1C[C@H](O[C@@H]2O[C@H](CO)[C@@H](O)[C@H](O)[C@H]2O)[C@@H]2[C@H](OC(=O)[C@H]2C)[C@H]2[C@H](C)[C@@H](O)C[C@@H]12`, the “activity change, negative = inhibition” value is inactive: -24.1%.
Same read-out and setting: next, `CCCCCn1c(=O)[nH]c2cc(C(=O)N3CCN(c4ccccc4F)CC3)ccc2c1=O`: inactive: -23.1%.
As to `C[C@H]1COC(=O)[C@H](CC(=O)OC(C)(C)C)C/C=C\C[C@H](CC(=O)N(CCO)Cc2ccccc2)C(=O)N1`, the “activity change, negative = inhibition” value was inactive: -25.3%.
Consider `CCOC(=O)N(C)C[C@H]1OCc2cnnn2CCCC(=O)N([C@H](C)CO)C[C@H]1C`, for which the “activity change, negative = inhibition” value was inactive: -27.1%.
The same measure, in the same setting: for `CCOC(=O)[C@@H]1[C@H]2COc3ccccc3[C@@H]2N2C(=O)N(c3ccccc3)C(=O)[C@@]12C` the value was inactive: 7.34%.
With `CCOC(=O)c1c(C)sc(-c2c(-c3cc(C)ccc3C)[nH]c3c2c(=O)n(C)c(=O)n3C)c1O`, the Potency was active: 28.2 µM.
Regarding `CCO[C@@H]1OC(C(=O)Nc2ccccc2)=C[C@H](c2ccc(Br)cc2)[C@H]1CCCO`, the “activity change, negative = inhibition” value was inactive: -23.5%.
Regarding `C=CC[C@H](CC(=O)N(CCO)Cc1ccccc1)C(=O)N[C@@H](COC(=O)[C@@H](CC=C)Cc1ccc(F)cc1)Cc1ccccc1`, the “activity change, negative = inhibition” value was inactive: -22.4%.
Turning to `O=C(NCc1ccccc1)C1=C[C@H](c2ccc3c(c2)OCO3)C[C@H](OCc2ccc(CO)cc2)O1`, the “activity change, negative = inhibition” value is inactive: -17.2%.
Regarding `CCOc1ccc(NC(=S)Nc2ccc3nsnc3c2)cc1`, the Potency is active: 28.2 µM.
On to `CCCNC(=O)Cn1c(=O)/c(=C\c2ccc(-c3cccc([N+](=O)[O-])c3)o2)s/c1=C\C(=O)C(C)(C)C`, for which the “activity change, negative = inhibition” value was inactive: 32.3%.
Take `CC(C)(C)OC(=O)C[C@@H]1C/C=C\C[C@@H](CC(=O)N[C@H](CO)Cc2ccccc2)C(=O)N2CCC[C@@H]2COC1=O`: the “activity change, negative = inhibition” value was inactive: -27.4%.
For the compound `CCNc1ccc(Br)cc(C(=O)/C=C/c2ccccc2Cl)c1=O`, the Potency was active: 28.2 µM.
With `Cn1ncc2c(N3CCN(c4cccc(Cl)c4)CC3)ncnc21`, the “activity change, negative = inhibition” value was inactive: 28.4%.
For the compound `COc1cccc(N2CCN(S(=O)(=O)c3ccc(-n4cnnn4)cc3)CC2)c1`, the “activity change, negative = inhibition” value is inactive: -9.81%.
On to `CCCc1nc2c(=O)n(C)c(=O)nc-2n(C)n1`, for which the Potency is active: 0.1 µM.
As for `NC(=O)CSc1oc(-c2ccco2)nc1S(=O)(=O)c1ccc(Cl)cc1`, the “activity change, negative = inhibition” value was inactive: -23.2%.
`COc1ccc(NC2=C(NCCO)C(=O)c3ccccc3C2=O)cc1`: the Potency was active: 25.1 µM.
Regarding `CCn1c(/C=C/c2ccc([N+](=O)[O-])o2)nc2ccccc2c1=O`, the “activity change, negative = inhibition” value is inactive: 119%.
As for `C=CCn1c(NC(=O)c2ccccc2Cl)c(C#N)c2nc3ccccc3nc21`, the Potency is active: 15.8 µM.
`O[C@@H]1CN(Cc2cccs2)[C@@H](c2ccccc2)C[C@H]1n1cc(-c2ccc(F)cc2)nn1`: the “activity change, negative = inhibition” value is inactive: -10.8%.
On the same count and under the same terms, for `COCCCn1c(=N)c(C(=O)NC2CCCCC2)cc2c(=O)n3ccccc3nc21` the value was inactive: -6.16%; for `O=C1NC[C@H](c2ccccc2)OC(=O)[C@H](Cc2ccc(F)cc2)C/C=C\C[C@H]1CC(=O)N(CCO)Cc1ccccc1`, inactive: -27.7%; for `O=C(N/C(=C/c1ccc(Br)cc1)C(=O)N1CCCC1)c1ccccc1F`, inactive: -4.52%.
For `Cc1ccc2oc(=O)c(-c3nc(-c4cccs4)no3)cc2c1`, the “activity change, negative = inhibition” value was inactive: 4.82%.
For `COC(C[C@@H]1O[C@@H]1[C@H](O)COCc1ccccc1)OC`, the “activity change, negative = inhibition” value is inactive: -19.9%.
Regarding `CC(Cc1cccc(C(F)(F)F)c1)NCCOC(=O)c1ccccc1` (stereo not drawn), the “activity change, negative = inhibition” value was inactive: -24.2%.
Turning to `CCN(CC)c1ccc(/C=c2\sc3nnc(-c4ccccc4Cl)n3c2=O)cc1`, the “activity change, negative = inhibition” value is inactive: 54.5%.
`CCOC(=O)[C@@H]1[C@H]2COc3ccc(Br)cc3[C@@H]2N2C(=O)N(c3ccc(C(F)(F)F)cc3)C(=O)[C@]12C`: the “activity change, negative = inhibition” value is inactive: -16%.
For `CCC(C)Sc1ccc([C@@H]2[C@@H]3C(=O)N(CC)C(=O)[C@@H]3[C@]3(C(=O)OC)CCCCN23)cc1` (stereo partly drawn), the “activity change, negative = inhibition” value is inactive: 2.04%.
Regarding `OC(COc1ccc(CN2CCCCO2)cc1)CN1CCCCC1` (stereo not drawn), the “activity change, negative = inhibition” value is inactive: 1.08%.
On to `N#CC(C(=O)OC1CCCCC1)c1nc2ccccc2nc1N1CCOCC1` (stereo not drawn), for which the “activity change, negative = inhibition” value is inactive: 122%.
`O=C(CSc1nc2cc(Cl)ccc2s1)c1cc2ccccc2o1`: the Potency is active: 28.2 µM.
Regarding `FC(F)(F)c1ccccc1C1=CC(c2ccccc2)n2ncnc2N1` (stereo not drawn), the “activity change, negative = inhibition” value was inactive: 25.9%.
As for `O=C1CCC/C(=N/NC(=O)c2sc3ccccc3c2Cl)C1`, the “activity change, negative = inhibition” value is inactive: 35.1%.
On to `CCN(CC)c1ccc(/C=C(/C#N)C(=O)NCc2ccccc2)o1`, for which the Potency was active: 31.6 µM.
Turning to `COCCCNC(=O)c1cc2c(-c3cccc(OC)c3)nn(C)c2s1`, the “activity change, negative = inhibition” value is inactive: -18.3%.
The same measure, in the same setting: next, `CCC1CN(C(=O)N2CCC(C(=O)NCc3ccccc3C)CC2)c2ccccc2O1` (stereo not drawn): inactive: -32.1%; `CCN1C(=O)/C(=C/C=C2\N(CC)c3cc(S(=O)(=O)N(C)C)ccc3N2c2ccccc2)SC1=S`: inactive: 41%; `CNC(=O)c1c[nH]c2ccc(S(=O)(=O)Nc3cccc(Cl)c3C)cc2c1=O`: inactive: 32.3%.
Turning to `Cc1ccc(NC(=O)c2ccc(NCCc3ccccc3)c([N+](=O)[O-])c2)cc1F`, the “activity change, negative = inhibition” value is inactive: 33.7%.
The same measure, in the same setting: next, `CCCCCCCCc1nnc(NC(=O)c2ccco2)s1`: inactive: 29.3%; `OCC[C@H]1C[C@H](O)[C@@H](O)[C@]2(CCCc3ccccc3O2)O1`: inactive: -9.44%.

The values above are taken from PubChem BioAssay AID743255 (National Center for Advancing Translational Sciences (NCATS), 2014).
